# Data taken from PMC4336329 (PLoS ONE, 2015).
# In all, about 310,000 compounds went through this assay and about 2,200 (0.71%) showed an effect of 50% or more. The effect is printed as a negative number. This is one part of the list.
# Target: human ether-à-go-go-related gene (hERG) potassium channel (human, UniProt Q12809)
# Assay: primary screen, population patch clamp on CHO cells stably expressing hERG
# Chain of human ether-à-go-go-related gene (hERG) potassium channel (Q12809 whole entry, looked up): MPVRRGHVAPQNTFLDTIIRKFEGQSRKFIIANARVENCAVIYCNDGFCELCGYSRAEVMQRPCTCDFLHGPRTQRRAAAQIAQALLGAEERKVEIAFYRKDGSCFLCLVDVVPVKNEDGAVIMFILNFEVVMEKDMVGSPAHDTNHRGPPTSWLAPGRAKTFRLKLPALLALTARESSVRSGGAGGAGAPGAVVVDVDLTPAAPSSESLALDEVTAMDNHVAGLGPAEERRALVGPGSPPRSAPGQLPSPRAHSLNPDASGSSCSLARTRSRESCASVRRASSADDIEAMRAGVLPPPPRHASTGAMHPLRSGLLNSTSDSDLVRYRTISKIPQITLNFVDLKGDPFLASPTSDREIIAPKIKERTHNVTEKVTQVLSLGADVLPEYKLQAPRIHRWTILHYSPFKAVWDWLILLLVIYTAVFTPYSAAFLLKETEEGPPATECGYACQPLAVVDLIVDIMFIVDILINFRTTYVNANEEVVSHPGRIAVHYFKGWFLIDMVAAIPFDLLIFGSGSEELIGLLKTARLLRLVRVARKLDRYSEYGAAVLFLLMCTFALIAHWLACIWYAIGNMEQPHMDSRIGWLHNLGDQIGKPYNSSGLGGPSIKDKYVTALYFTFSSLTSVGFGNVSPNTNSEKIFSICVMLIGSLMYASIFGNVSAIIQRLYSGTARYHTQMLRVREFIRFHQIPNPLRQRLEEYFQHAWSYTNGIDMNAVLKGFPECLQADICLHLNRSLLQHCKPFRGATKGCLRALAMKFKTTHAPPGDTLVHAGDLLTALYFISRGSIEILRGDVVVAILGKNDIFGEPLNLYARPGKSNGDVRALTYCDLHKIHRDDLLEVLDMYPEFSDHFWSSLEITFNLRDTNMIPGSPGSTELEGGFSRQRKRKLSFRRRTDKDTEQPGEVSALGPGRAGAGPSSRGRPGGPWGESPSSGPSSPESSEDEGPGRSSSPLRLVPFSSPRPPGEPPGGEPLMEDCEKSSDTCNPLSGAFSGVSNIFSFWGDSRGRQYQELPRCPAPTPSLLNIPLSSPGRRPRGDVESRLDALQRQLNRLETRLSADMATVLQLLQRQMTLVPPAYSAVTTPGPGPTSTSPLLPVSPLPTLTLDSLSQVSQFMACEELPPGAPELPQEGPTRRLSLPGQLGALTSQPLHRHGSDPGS
row,SMILES,"hERG current change (%, negative = inhibition) at 1uM"
1,O=c1[nH]c(/C=C\c2ccccc2F)nc(O)c1[N+](=O)[O-],12.3%
2,COP(=O)(OC)/C(C=O)=N/Nc1ccc([N+](=O)[O-])cc1,-14.7%
3,CCN(Cc1ccccc1)S(=O)(=O)c1c[nH]c(C(=O)OC)c1,3.79%
4,Cc1cc(C(=O)OCC(=O)NC(C)c2ccccc2)c(C)o1 (centres unmarked),10.6%
5,N#Cc1nc(COc2ccccc2F)oc1NCCc1ccccc1,10.3%
6,Cc1nccn1CC(O)COc1ccc([N+](=O)[O-])cc1 (centres unmarked),-41.3%
7,Cc1oc(-c2ccccc2F)nc1CS(=O)(=O)CC(=O)N1CCN(c2ccccc2)CC1,13.6%
8,O=C(COC(=O)c1cc(Br)ccc1O)Nc1cccnc1Cl,14.2%
9,CC(=O)c1ccc(OCCCC(=O)NC2CCC(C)CC2)cc1 (centres unmarked),4.82%
10,O=C(NCc1ccc(Cl)cc1)c1nccnc1CO,11%
11,COc1ccc(F)cc1S(=O)(=O)N1CCCC(C)C1 (centres unmarked),0.819%
12,Cc1csc(CN(C)C(=O)C2CCC(=O)N(CCCc3ccccc3)C2)n1 (centres unmarked),4.5%
13,CC(C)(C)c1ccc(-c2nnc3sc(-c4ccccn4)nn23)cc1,2.32%
14,COC(=O)CCSc1cc(NCCOC(C)=O)c([N+](=O)[O-])c2nonc12,5.08%
15,COc1ccc(NC(=O)COc2nsnc2N2CCOCC2)cc1,19%
16,CC(=O)c1cccc(S(=O)(=O)NCC(C)(C)N2CCOCC2)c1.O=C(O)C(=O)O,9.67%
17,CCCCCCCCCCCC(=O)NC(C(=O)OCC)C(O)c1cccc([N+](=O)[O-])c1 (centres unmarked),11.1%
18,Cn1c(=O)c2sccc2n2c(CCCC(=O)NCc3ccc(F)cc3)nnc12,19.3%
19,CCOC(=O)C1=C(C)C2C3C(=O)N(c4cc(C)ccc4C)C(=O)C3C1(C)C1C(=O)N(c3cc(C)ccc3C)C(=O)C21 (centres unmarked),17.4%
20,COc1c(C)cccc1C(=O)Nc1ccc(N2CCOCC2)c(Cl)c1,-10.9%
21,Cc1ccnc(NC(=O)CNC(=O)C23CC4CC(CC(C4)C2)C3)c1,-0.0117%
22,O=C(O)C1CC1C(=O)N1CCN(c2ccc(Cl)c(Cl)c2)CC1 (centres unmarked),0.698%
23,N/C(CCN1CCCCC1)=N/O,2.32%

row,SMILES,"hERG current change (%, negative = inhibition) at 1uM"
1,Cc1nn(C)c(C)c1S(=O)(=O)NC1CCCC1,3.1%
2,COC(=O)C1=C(C)N(Cc2ccc(OC)cc2)C(=O)/C1=C\c1ccco1,2.54%
3,COc1cccc(-n2nnnc2SCC(=O)Nc2nc3c(s2)CCCC3)c1,-0.0399%
4,COc1ccc2c(c1)CCC/C2=N\OC(=O)c1ccccc1F,3.57%
5,COc1ccc(C2c3ccsc3CCN2C(C)=O)cc1 (centres unmarked),5.7%
6,COc1ccc(N(CC(=O)NCCC2=CCCCC2)S(=O)(=O)c2c(C)[nH]c(=O)[nH]c2=O)cc1,14.1%
7,CN(Cc1ccccc1)C(=O)c1[nH]cnc1C(=O)NCC(=O)OC(C)(C)C,8.76%
8,COc1cc(NC(=O)CCN2CCOCC2)cc(OC)c1,17.1%
9,CC(OC(=O)C1CCCCC1)C(=O)Nc1cccc([N+](=O)[O-])c1 (centres unmarked),12.5%
10,COc1ccc(F)cc1S(=O)(=O)n1nnc2ccccc21,5.45%
11,C=CCn1c(=N)c(C(=O)OCC)cc2c(=O)n3cccc(C)c3nc21,-73.7%
12,NC(=O)CC(NC(=O)Cc1cccc2ccccc12)c1ccc(N2CCCCCCC2)c([N+](=O)[O-])c1 (centres unmarked),1.69%
13,Nc1nc(CSc2nnc(-c3cccc(F)c3)n2-c2ccccc2)nc(N2CCOCC2)n1,5.47%
14,Cc1cc(C(=O)O/N=C(\N)c2ccncc2)ccc1[N+](=O)[O-],0.826%
15,COc1ccc(CN2CCCCCC2)cc1Br,10%
16,Cc1ccc(C(=O)Oc2coc(CSc3nnc(NC(=O)C4CC4)s3)cc2=O)cc1,5.23%
17,Cc1cc(NS(=O)(=O)c2ccc(NC(=O)CN3C(=O)c4ccccc4C3=O)cc2)nc(C)n1,-2.39%
18,CC(=O)/C(=C\N(C)C)Sc1ccc(C)cc1,27.2%
19,CCOC(=O)CN1C(=O)C(O)(CC(=O)c2cccc(OC)c2)c2ccccc21 (centres unmarked),14.8%
20,Cc1ccc(-c2noc(COc3ccc4c(c3)OCO4)n2)cc1,1.72%
21,COc1ccc(CNC(=O)CCNS(=O)(=O)c2ccc(NC(C)=O)cc2)cc1OC,14.2%
22,COc1ccc2cc3c(N)nn(C(=O)Cc4ccc(Cl)cc4)c3nc2c1,12.1%
23,Cc1cccc(OCCCC(=O)Nc2ccc(S(=O)(=O)Nc3ncccn3)cc2)c1C,15.4%

row,SMILES,"hERG current change (%, negative = inhibition) at 1uM"
1,COC(=O)CNc1cccc(C(F)(F)F)c1,2.99%
2,COC(=O)c1c(C(=O)OC)c(-c2cccc(C)c2)n2c1CS(=O)C2 (centres unmarked),12.6%
3,CCOC(=O)C1=c2/c(=C/c3ccncc3)c(N)c(C(=O)OC)n2C(=O)C(c2ccncc2)S1 (centres unmarked),5.01%
4,CC(C)CN1CCNC(=O)C1CC(=O)NCCCN1CCCc2ccccc21 (centres unmarked),18.9%
5,CCOC(=O)CSc1nn(C)c(=S)s1,4.31%
6,Cc1ccc2[nH]cc(CCCN3C(=O)c4ccccc4C3=O)c2c1,-5.28%
7,COc1ccc(CN(CC2CCC(C(=O)O)CC2)C(=S)Nc2cc(Cl)ccc2OC)cc1 (centres unmarked),11.2%
8,COc1cccc(CC2CC(=O)N(CCc3ccc4c(c3)OCO4)C2=O)c1 (centres unmarked),10.7%
9,O=C(Nc1ccc(N2CCN(C(=O)c3ccco3)CC2)c(Cl)c1)c1cc2ccccc2o1,-1.49%
10,Cc1cc(C)c(OCCCCNCc2ccccc2)c(Cl)c1.O=C(O)C(=O)O,-23.4%
11,COc1ccc(C(=O)COC(=O)/C=C/c2ccc(S(=O)(=O)Nc3cccc(S(N)(=O)=O)c3)cc2)cc1,0.812%
12,O=C1OCCC1Sc1nnc(-c2ccc(Br)cc2)o1 (centres unmarked),15%
13,Cc1c(C(=O)NCc2ccccc2)oc2ccc(S(=O)(=O)N3CCCC3)cc12,-3.31%
14,COc1ccc(-c2cc(-c3ccccc3O)[nH]n2)cc1OC,12.2%
15,COc1ccc(NC(=S)Nc2ccccc2C(F)(F)F)cc1,9.35%
16,O=C(CCSc1ccc(Cl)cc1)Nc1cccnc1,5.73%
17,COc1ccc(C(=O)N2CCCN(C)CC2)cc1S(=O)(=O)N(C)Cc1ccccc1,7.13%
18,CC1(C)CC(=O)c2c(nn(-c3ccccc3)c2-c2ccncc2)C1,10.2%
19,COc1ccccc1-n1c(C)nnc1SCC(=O)Nc1cccc(C(C)=O)c1,4.31%
20,COc1cc(C2NC(=S)NC(C)=C2C(=O)c2ccccc2)ccc1O (centres unmarked),11.2%
21,CCC(=O)Nc1ccc2c(c1)nc(CN1CCCCC1)n2C,7.61%
22,O=CN1CCc2scc[n+]2-c2ccccc21.[Br-],24.4%
23,CSc1nc2c(c(=O)n1C)SC(C)C2 (centres unmarked),0.117%

row,SMILES,"hERG current change (%, negative = inhibition) at 1uM"
1,Cc1ccc(OCC(=O)Nc2cccc(S(=O)(=O)N3CCCCCC3)c2)cc1C,11.8%
2,CN(n1cnc2ccccc2c1=O)S(C)(=O)=O,13.4%
3,COc1cc(/C=C\C(=O)NCc2ccc3c(c2)cc(C)n3C)cc(OC)c1OC,12.2%
4,COc1ccc(-c2noc(CN(C(=O)c3ccc(OC(C)=O)cc3)C(C)C)n2)cc1OC,9.67%
5,COc1cc2c(cc1OC)CN(CC(=O)Nc1ccccc1SC)CC2,2.61%
6,CCCCn1c(N)c(N(CCC(C)C)C(=O)C2=COCCO2)c(=O)[nH]c1=O,5.25%
7,O=C(NCc1cccs1)c1cc(-c2ccc(O)cc2)on1,11.7%
8,COc1ccc(CCNC(=O)CNC(=O)c2ccco2)cc1,16.3%
9,OCc1ccccc1NC(=S)Nc1cccnc1,-5.08%
10,C/C(CC(=O)Nc1cccc(Cl)c1Cl)=N\NC(=O)C(=O)NC1CCCCC1,4.78%
11,Cc1ccc(S(=O)(=O)N2CCC(C(=O)NCCCN3CCOCC3)CC2)cc1,1.42%
12,O=C(CSc1nc2ccccc2[nH]1)Nc1ccc(N2CCOCC2)cc1,9.23%
13,CCC(C)NC(=O)Cn1ccc2cc(S(=O)(=O)N3CCCCCC3)ccc21 (centres unmarked),10.3%
14,COc1ccc(CC2S/C(=C(\C#N)C(=O)NCc3ccco3)N(c3ccc(C)cc3)C2=O)cc1 (centres unmarked),7.56%
15,COc1cc(OC)c(C2=NOC(C(=O)NCc3cccnc3)C2)cc1Cl (centres unmarked),16.2%
16,CN1CCN(C(=O)C2CCC(=O)N(Cc3cccc(C(F)(F)F)c3)C2)CC1 (centres unmarked),6.99%
17,CCOC(=O)c1cnc(Nc2nc3ccccc3o2)nc1CSc1nnc(C)s1,11.2%
18,COC(=O)c1ccccc1Nc1ccccc1,15.9%
19,CCOC(=O)c1ccc(NC(=O)c2sc3nc(N4CCOCC4)c4c(c3c2N)CCCC4)cc1,7.44%
20,O=C(CNS(=O)(=O)c1cccs1)N1CCC2(CC1)OCCO2,14.7%
